The campaign covered roughly 230,000 compounds. About 3,600 (1.6%) were called active. The inconclusive results got no clear call from the source; some entries with a clear call stand among them for comparison. Calls come from the whole dose curve; as a rule, active = well fitted inhibition curve with a large enough effect (not every such curve was filed as active); inconclusive = small, poorly fitted or top-dose-only effect, or another doubt; inactive = no such curve, though single readings can be large or run the other way. Where the call is inconclusive, the potency comes from a doubtful curve fit. More than one record can exist for a structure, and the calls need not agree.
biological target: Lysine-specific demethylase 4E (Homo sapiens) (UniProt B2RXH2); assay: qHTS Assay for Inhibitors of Human Jumonji Domain Containing 2E (JMJD2E); conditions: JMJD2E catalytic domain, FDH-coupled NADH fluorescence (FDH is formaldehyde dehydrogenase); series mostly up to 57.1 µM; activity change, negative = inhibition: at the top concentration
Note: nearly all actives have a fitted effect of over 50% in size.
Potency is the fitted concentration of half-maximal effect; tags give direction and shape of the fitted curve.
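Throughout, for activity change, negative = inhibition: 0% = wells with enzyme and -100% = buffer wells without enzyme.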

UniProt B2RXH2, sequence (B2RXH2 whole entry, looked up, the tested form may be a part): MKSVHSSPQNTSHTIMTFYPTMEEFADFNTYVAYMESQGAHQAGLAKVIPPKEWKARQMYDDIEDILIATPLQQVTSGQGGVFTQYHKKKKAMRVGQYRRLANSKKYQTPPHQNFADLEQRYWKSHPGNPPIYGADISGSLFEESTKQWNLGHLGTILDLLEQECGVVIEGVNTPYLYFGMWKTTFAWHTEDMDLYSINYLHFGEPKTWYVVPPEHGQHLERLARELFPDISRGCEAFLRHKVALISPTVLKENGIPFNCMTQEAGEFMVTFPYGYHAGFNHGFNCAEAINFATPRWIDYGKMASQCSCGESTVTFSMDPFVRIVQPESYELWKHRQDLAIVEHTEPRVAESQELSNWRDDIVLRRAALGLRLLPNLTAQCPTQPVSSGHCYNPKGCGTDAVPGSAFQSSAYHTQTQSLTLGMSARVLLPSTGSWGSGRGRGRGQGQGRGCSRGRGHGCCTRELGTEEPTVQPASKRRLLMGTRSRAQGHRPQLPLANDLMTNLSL

| SMILES | Potency | activity change, negative = inhibition |
| --- | --- | --- |
| O=C1CCCC2=C1C(c1cccs1)n1nc(SCc3ccc(C(=O)O)cc3)nc1N2 (configuration not stated) | inconclusive: 25.1 µM [inhibitor, partial curve] | – |
| COc1ccc(-c2ccc(CCC(=O)O)n2CC(C)C)cc1 | inconclusive: 28.2 µM [inhibitor, partial curve] | – |
| COC(=O)c1ccc(N2CCCCC2)c(NS(=O)(=O)c2ccc(C)cc2)c1 | inconclusive: 31.6 µM [inhibitor, single point] | – |
| O=C(Nc1nnc(C2CC2)o1)c1ccc(S(=O)(=O)N2CCCc3ccccc32)cc1 | inconclusive: 39.8 µM [inhibitor, single point] | – |
| C/C(=N\NC(=O)c1ccncc1)c1ccc(N(C)C)cc1 | – | inactive: 54.9% |
| COCCCNC(=O)c1ccc(-c2csc(C)n2)cc1 | inconclusive: 35.5 µM [inhibitor, single point] | – |
| O=[N+]([O-])c1cc2c(cc1/C=N/n1c(-c3ccccc3)n[nH]c1=S)OCO2 | – | inactive: -1.21% |
| CC1CCCCN1C(=O)Nc1cccc(Cl)c1 (configuration not stated) | – | inactive: 4.3% |
| CC1CCCCN1C(=O)c1cc(F)c(F)cc1Cl (configuration not stated) | – | inactive: -2% |
| C=CCc1cc(C=O)cc(OC)c1OCc1ccc(C(=O)O)cc1 | inconclusive: 39.8 µM [inhibitor, single point] | – |
| C=C(C)C1Cc2c(ccc(C(=O)O)c2O)O1 (configuration not stated) | – | inactive: -0.134% |
| O=C(CCCOc1ccc(Cl)cc1Cl)n1nnc2ccccc21 | – | inactive: -7.96% |
| Cc1ccccc1NC(=O)c1oc(=O)c2ccccc2c1-c1ccccc1 | inconclusive: 39.8 µM [inhibitor, single point] | – |
| COC(=O)c1ccc(C(=O)OC)c(NC(=S)N2CCN(C(=O)C3CCCO3)CC2)c1 (configuration not stated) | inconclusive: 31.6 µM [inhibitor, single point] | – |
| COc1ccc2[nH]cc(CCNC(C)=O)c2c1 | inconclusive: 22.4 µM [inhibitor, partial curve] | – |
| Cc1ccccc1C(=O)NCCNc1ccc([N+](=O)[O-])cc1 | inconclusive: 39.8 µM [inhibitor, single point] | – |
| CC(/C=N/NC(=O)c1cc(-c2ccncc2)nc2ccccc12)=C\c1ccco1 | – | inactive: -4.52% |
| CC[C@@]1(O)C(=O)COc2c1cc1n(c2=O)Cc2c-1nc1cccc(C(C)C)c1c2[Si](C)(C)C | inconclusive: 14.1 µM [inhibitor, partial curve] | – |
| COC(=O)c1ccc(CSc2ncnc3c2nnn3-c2ccc(OC)cc2)o1 | inconclusive: 39.8 µM [inhibitor, single point] | – |
| CN(C(=O)COC(=O)c1ccc[nH]c1=O)C1CCCCC1 | inconclusive: 39.8 µM [inhibitor, single point] | – |
| COc1ccc(C)cc1C1=Nc2ccccc2C1(C)C | inconclusive: 31.6 µM [inhibitor, single point] | – |
| COc1ccc(Nc2nc3ccccc3nc2NS(=O)(=O)c2cccs2)cc1 | inconclusive: 20 µM [inhibitor, partial curve] | – |
| COc1cccc(NC(=O)Cn2c(=O)n(CCCC(=O)NCc3ccco3)c(=O)c3ccccc32)c1 | – | inactive: -18.1% |
| CCCCC1=CC2=C(c3ccco3)C(=O)C(C)(OC(=O)c3ccc(OC)cc3)C(=O)C2=CN1Cc1ccccc1 (configuration not stated) | active: 15.8 µM | inactive: -8.63% [at 11.4 µM] |

| SMILES | Potency | activity change, negative = inhibition |
| --- | --- | --- |
| Cc1cc(C)c2c(n1)nn1c(NCCN3CCOCC3)cc(C)nc21 | inconclusive: 15.8 µM [inhibitor, partial curve] | – |
| O=C(Nc1ccc(F)cc1)N(CCCN1CCOCC1)Cc1cc2cc3c(cc2[nH]c1=O)OCCO3 | inconclusive: 28.2 µM [inhibitor, partial curve] | – |
| COc1cccc(-c2ccc(C#N)c(=O)[nH]2)c1 | inconclusive: 28.2 µM [inhibitor, partial curve] | – |
| CCOc1ccc(-n2c(N)c(C(=O)NCc3ccco3)c3nc4ccccc4nc32)cc1 | inconclusive: 35.5 µM [inhibitor, partial curve] | – |
| CC1=C(Cl)C2=NS(=O)(=O)CCN2C=C1Cl | inconclusive: 28.2 µM [inhibitor, partial curve] | – |
| O=C(C[n+]1cc(-c2ccc(Cl)cc2)n2c1CCC2)N1c2ccccc2Sc2ccccc21 | inconclusive: 8.91 µM [inhibitor, single point] | – |
| Cn1c(=O)c(Sc2ccccc2)c(O)c2ccccc21 | inconclusive: 17.8 µM [inhibitor, partial curve, poor fit] | – |
| CC1CCN(CC(=O)Nc2sc3c(c2C#N)CCC3)CC1 | inconclusive: 31.6 µM [inhibitor, single point] | – |
| COc1cc(/C=C(\C#N)C(N)=O)ccc1OS(=O)(=O)c1ccc(C)cc1 | – | inactive: -5.82% |
| COc1ccc(NC(=O)COC(=O)Cc2ccc(-c3ccccc3)cc2)c(OC)c1 | – | inactive: 2.55% |
| COc1ccc(/C=C/C(=O)NC(=S)NNC(=O)c2cccs2)cc1 | inconclusive: 17.8 µM [inhibitor, partial curve, poor fit] | – |
| CC(Oc1ccc(F)cc1)C(=O)Nc1sc2c(c1C(=O)NCc1cccnc1)CCCC2 (configuration not stated) | – | inactive: 4.55% |
| Fc1ccc(Nc2ccc3ccccc3n2)c(F)c1 | active: 22.4 µM | – |
| CN(C)S(=O)(=O)c1ccc(N2CCCC2)c(C(=O)Nc2nc3c(ccc4ccccc43)s2)c1 | inconclusive: 22.4 µM [inhibitor, partial curve] | – |
| CN(C)CCN1C(=O)c2oc3ccc(Cl)cc3c(=O)c2C1c1cccc(Br)c1 (configuration not stated) | inconclusive: 39.8 µM [inhibitor, single point] | – |
| Cc1ncsc1C(=O)N1N=C2/C(=C/c3ccc(N4CCOCC4)cc3)CCCC2C1c1ccc(N2CCOCC2)cc1 (configuration not stated) | – | inactive: -0.7% |
| COc1cccc(-c2nc(CCl)cs2)c1 | inconclusive: 39.8 µM [inhibitor, single point] | – |
| Cc1ccc2nc(-c3ccc(NC(=O)CSc4nccc(=O)[nH]4)cc3)sc2c1 | inconclusive: 25.1 µM [inhibitor, partial curve] | – |
| CNC(=O)c1c(N)sc2c1CCCCC2 | inconclusive: 25.1 µM [inhibitor, single point] | – |
| COc1ccc(-c2cc(C(=O)N/N=C/c3ccc(OC)c(COCC(F)(F)C(F)F)c3)c3ccccc3n2)c(OC)c1 | inconclusive: 17.8 µM [inhibitor, partial curve] | – |
| NC(=O)N/N=C\c1cc(Br)ccc1O | inconclusive: 28.2 µM [inhibitor, partial curve] | – |
| CCOC(=O)C1=NN(c2ccccc2C)C2=NC(C)=C(C(=O)OC)C(c3cccs3)N12 (configuration not stated) | inconclusive: 28.2 µM [inhibitor, single point] | – |
| COc1ccc(NC(=O)O/N=C2/CCCc3ccc(OC)cc32)cc1 | inconclusive: 28.2 µM [inhibitor, partial curve] | – |
| OC1=C(O)c2nc3cc(F)ccc3nc21 | inconclusive: 10 µM [inhibitor, partial curve] | – |

| SMILES | Potency | activity change, negative = inhibition |
| --- | --- | --- |
| CCN(CC)CCn1c(SCC(=O)Nc2ccc(F)cc2)nc2c(sc3ccccc32)c1=O | inconclusive: 28.2 µM [inhibitor, partial curve] | – |
| O=C(c1ccccc1)N1CCN(S(=O)(=O)N2CCCCC2)CC1 | – | inactive: 1.08% |
| CCN1C(=O)C(O)(CC(=O)c2ccc3c(c2)OCCO3)c2ccccc21 (configuration not stated) | – | inactive: -16.7% |
| O=C(/C=C/c1ccccc1)N1CCC(c2ccccc2)C1 (configuration not stated) | – | inactive: 6.33% |
| COC(=O)c1ccc(Cn2cnc3c(cnn3-c3ccc(Cl)cc3)c2=O)o1 | inconclusive: 35.5 µM [inhibitor, single point] | – |
| COc1cc(SC)ccc1C(=O)NC1CCCCC1 | – | inactive: -0.605% |
| Cc1cc(=O)[nH]c2c1c(-c1ccccc1)nn2C | inconclusive: 39.8 µM [inhibitor, single point] | – |
| CCOC(=O)Cc1csc(NC(=O)c2cccc(OC)c2)n1 | – | inactive: 2.22% |
| O=C(NCCC(=O)N1CCOCCOCCOCCOCC1)OCc1ccccc1 | – | inactive: 0.662% |
| COc1ccccc1C1CCCN1Cc1nc(-c2cc3c(cc2Cl)OCO3)oc1C (configuration not stated) | inconclusive: 39.8 µM [inhibitor, single point] | – |
| CC(=O)N1CCN(Cc2nc3cc(NC(=O)c4ccc(F)cc4)ccc3n2C)CC1 | – | inactive: 2.95% |
| CCC(=O)NNc1nc2c(C)cccc2s1 | – | inactive: -4.27% |
| O=C(N/N=C/c1ccco1)c1cc(C2CC2)nc2ccccc12 | inconclusive: 39.8 µM [inhibitor, single point] | – |
| FCCCOc1ccc(-c2ccnc(-c3ccccc3)n2)cc1 | inconclusive: 39.8 µM [inhibitor, single point] | – |
| Cc1ccc2[nH]c3c(=O)n(N)c(C)nc3c2c1 | inconclusive: 25.1 µM [inhibitor, partial curve] | – |
| COC(=O)c1ccc(CSc2nc(-c3ccco3)cc(C(F)(F)F)n2)o1 | inconclusive: 35.5 µM [inhibitor, single point] | – |
| COc1cc(C2C(C#N)=C(N)N(Nc3ccccc3)C3=C2C(=O)CC(C)(C)C3)ccc1OCc1ccccc1 (configuration not stated) | inconclusive: 3.16 µM [inhibitor, partial curve] | – |
| CN(Cc1ccccc1)C(=S)NC(=O)c1ccc(-c2ccccc2)cc1 | – | inactive: 10.6% |
| Nc1nc(-c2c[nH]c3ccccc23)cs1 | inconclusive: 25.1 µM [inhibitor, single point] | – |
| COc1ccccc1Oc1c(C)oc2c(CN(C)C)c(O)ccc2c1=O | inconclusive: 28.2 µM [inhibitor, partial curve] | – |
| O=C(Nc1ccc(-c2noc(COc3ccccc3Cl)n2)cc1)c1ccco1 | inconclusive: 25.1 µM [inhibitor, partial curve] | – |
| Nc1ccccc1SSc1ccccc1N | – | inactive: 2.54% |
| COc1cc(S(=O)(=O)NCCOC23CC4CC(CC(C4)C2)C3)c(OC)cc1Cl | inconclusive: 39.8 µM [inhibitor, single point] | – |

Source: PubChem BioAssay AID2147 (National Center for Advancing Translational Sciences (NCATS), 2009)
